Source: PubChem BioAssay (NCATS)
“And” between values parts separate entries of the source, which are not always exact repeats. Equal entries are not always repeated. The inconclusive results got no clear call from the source; some entries with a clear call stand among them for comparison. For part of these data: Where the call is inconclusive, the potency comes from a doubtful curve fit. For part of these data: “Side channel” marks fits to a control or component signal instead of the main read-out. The source made the active and inactive calls. Unless noted, the call rests on the fitted dose curve; in most records, active means well fitted curve in the direction sought with a large enough effect; inconclusive means small, poorly fitted or top-dose-only effect, or another doubt; inactive means no such curve, though single readings can be large; an effect the other way counts as inactive or inconclusive.

How the values were obtained:
[1] = target: Retinoic acid receptor RXR-alpha (Homo sapiens) (UniProt P19793); experiment: qHTS assay for small molecule agonists of retinoid X receptor alpha signaling (AID 588544; calls by dose curve; further: potency means the concentration at half of the fitted maximal effect); details: HEK293T RXRa-UAS-bla, beta-lactamase reporter, 18 h; activation: at 76.7 µM (top of the series) unless noted
[2] = target: Retinoic acid receptor RXR-alpha (Homo sapiens) (UniProt P19793); experiment: qHTS assay for small molecule antagonists of retinoid X receptor alpha signaling (AID 588546; active means well fitted inhibition curve with a large enough effect in the signal ratio, with a control signal flat, not every such curve was filed as active; inconclusive means small, poorly fitted or top-dose-only effect, or effect the other way, or a change in a side signal; inactive means no such curve, though single readings can be large or run the other way; the % refers to the signal ratio;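 further: cells stimulated with 9-cis-retinoic acid as agonist; on the % scale 0 is the no-effect control and ±100 the full control effect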); details: HEK293T RXRa-UAS-bla, beta-lactamase ratio, antagonist mode
Method in brief: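 Beta-lactamase reporter inhibition, read as CCF4 fluorescence ratio (ex 405, em 460/530 nm) after 2 h at RT. HEK293T UAS-bla cells, 2500/well, were stimulated with 9-cis-RA at 500 or 100 nM final alongside test compound for 18 h at 37 C.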

[3] = qHTS assay for small molecule agonists of the antioxidant response element (ARE) signaling pathway (AID 651741; active means well fitted activation curve with a large enough effect in the signal ratio; inconclusive means small, poorly fitted or top-dose-only effect, or effect the other way, or a change in a side signal; the % refers to the signal ratio; further: potency means the concentration at half of the fitted maximal effect; on activation: % of control where 0% means no effect); details: HepG2 ARE-bla reporter, beta-lactamase FRET ratio, 16 h; activation: at 96 µM (top of the series) unless noted
Method in brief: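 Compounds in DMSO are pinned onto HepG2 ARE-bla cells (2,000/well) that were preincubated 5 h; plates stay 16 h at 37 C, then beta-lactamase activity is detected with LiveBLAzer B/G substrate by fluorescence.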

[4] = qHTS assay to identify small molecules that stimulate interleukin-8 (IL-8) secretion (AID 651758; active means well fitted activation curve with a large enough effect in the signal ratio; inconclusive means small, poorly fitted or top-dose-only effect, or effect the other way, or a change in a side signal; the % refers to the signal ratio; further: potency means the concentration at half of the fitted maximal effect; on activation: 0% is about no effect); details: HTRF ratio (665/615); activation: at 92.2 µM (top of the series)
Method in brief: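 THP-1, 2000 cells/well; cpd 16 h, 37 C; add cryptate + XL665 anti-IL-8 Abs; RT 1-3 h; TR-FRET read.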

[5] = target: Nuclear receptor ROR-gamma (Homo sapiens) (UniProt P51449); experiment: qHTS assay for small molecule antagonists of the retinoid-related orphan receptor gamma (ROR-gamma) signaling pathway (AID 651802); further: nearly all actives have a fitted effect of over 60% in size; further: potency means the concentration at half of the fitted maximal effect
Method in brief: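 CHO cells with TET-inducible ROR-gamma and RORE-luciferase reporter, dosed then doxycycline-induced. After 16 h at 37C, One-Glo luminescence read; decreased signal indicates antagonism.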

[6] = qHTS assay for small molecule agonists of the antioxidant response element (ARE) signaling pathway measured by Nrf2-dependant transcriptional activity (AID 720636; active means well fitted curve in the direction sought with a large enough effect in the repeat runs; inconclusive means weak or mixed curves; inactive means no such curve, though single readings can be large; an effect the other way counts as inactive or inconclusive; further: potency means the concentration at half of the fitted maximal effect)
Method in brief: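 We exposed ARE-luc HepG2 cells, seeded in assay medium with 1% dialyzed FBS and allowed 6 hr to adhere, to test compounds overnight (16 hr, 37 C) before measuring luciferase with ONE-Glo.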

[7] = qHTS assay for small molecule antagonists of the retinoid-related orphan receptor gamma (ROR-gamma) signaling pathway - cell viability counter screen (AID 720652; active means well fitted curve in the direction sought with a large enough effect in the repeat runs; inconclusive means weak or mixed curves; inactive means no such curve, though single readings can be large; an effect the other way counts as inactive or inconclusive;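 further: potency means the concentration at half of the fitted maximal effect; compound exposure lasted 16 hr before ATP read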)
Method in brief: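 CHO cells carrying TET-inducible ROR and RORE-luciferase reporter, plated 5 hr, then dosed with compound plus doxycycline. After 16 hr at 37 C, viability read as intracellular ATP by CellTiter-Glo luminescence.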

[8] = Cell Viability - Hek293 (AID 427;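 active means compounds whose dose-response curve shows a full or clear partial loss of cell viability, called from curve shape rather than a numeric limit; inconclusive means weak partial curves or an effect only at the top dose; inactive means no dose-dependent loss of viability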;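 further: potency means the concentration at half of the fitted maximal effect; cells exposed to compound for 40 hours at 37 °C before reading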); details: qHTS
Method in brief: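 AC50 values derive from Hill-modelled concentration-response of ATP-based luminescence, normalized between DMSO-only and 100 uM tamoxifen controls. Cells were exposed in complete culture medium for 40 hr at 37 °C before detection.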

[9] = target: Mitogen-activated protein kinase 10 (Mus musculus) (UniProt Q61831); experiment: JNK3 AlphaScreen Assay (AID 530; active means well fitted curve in either direction with a large enough effect, not every such curve was filed as active; inconclusive means small, poorly fitted or top-dose-only effect, or another doubt;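 further: kinase came from lysate of stimulated human HepG2 cells; signal reports phosphorylation of biotinylated GST-cJun 1-79 at Ser73 with 10 µM ATP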; further: potency means the concentration at half of the fitted maximal effect; on activity change, negative = inhibition: on the % scale 0 is the no-effect control and ±100 the full control effect); details: JNK3 lysate, c-Jun phosphorylation; activity change, negative = inhibition: at 57.1 µM (top of the series)
Method in brief: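 Inhibitors reduce antibody binding to phosphorylated biotin-cJun, lowering AlphaScreen luminescence. Lysates from HepG2 cells pre-activated by IL-1beta plus TNF-alpha supplied JNK3; compounds were titrated.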

[10] = Cell Viability - LYMP2-024 (AID 988); details: LYMP2-024 lymphoblastoid cell viability; activity change, negative = cytotoxicity: at 92.2 µM (top of the series);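 further: plate controls were DMSO only for no effect and 92 µM tetraoctylammonium bromide for full effect; nearly all actives have a fitted effect of over 60% in size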
Method in brief: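 Human lymphoblastoid LYMP2-024 cells (2500/well) rested 5 hr, then treated with compound for 24 hr at 37 C in complete medium. Viability was measured as intracellular ATP by CellTiter-Glo luminescence. AC50 values came from Hill-equation fits.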

[11] = target: Estrogen receptor (Homo sapiens) (UniProt P03372); experiment: qHTS assay for small molecule agonists of estrogen receptor alpha signaling (AID 588514; calls by dose curve; further: potency means the concentration at half of the fitted maximal effect; nearly all actives have a fitted effect of over 70% in size); details: ER-alpha-UAS-bla HEK293, beta-lactamase ratio, 18 h; activation: at 76.8 µM (top of the series), percent of full estradiol response, vehicle zero
Method in brief: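 ER-alpha-UAS-bla GripTite HEK293 cells, 5000/well in 2% charcoal/dextran-stripped FBS medium, treated with compound titrations 18 h at 37 C. CCF4 beta-lactamase read by fluorescence after 2 h RT; normalised to 20 nM 17-beta-estradiol (100%) and DMSO (0%), Hill fit for EC50 and efficacy.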

[12] = target: Androgen receptor (Homo sapiens) (UniProt P10275); experiment: qHTS assay for small molecule agonists of androgen receptor signaling (AID 588515; active means well fitted curve in the direction sought with a large enough effect in the signal ratio, with a control signal flat; inconclusive means small, poorly fitted or top-dose-only effect, or effect the other way, or a change in a side signal; inactive means no such curve, though single readings can be large or run the other way; the % refers to the signal ratio; further: on the % scale 0 is the no-effect control and ±100 the full control effect); details: AR-UAS-bla HEK293, beta-lactamase ratio, agonist 16 h; activation: active compounds read high
Method in brief: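 EC50 and efficacy came from Hill fits of titrations (up to 92 uM) normalized to 30 nM R1881 as 100% and DMSO as 0%. Compound exposure was 16 h at 37 C on AR-UAS-bla HEK293 cells, with a 405/460/530 nm CCF4 fluorescence read.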

[13] = target: Peroxisome proliferator-activated receptor gamma (Homo sapiens) (UniProt P37231); experiment: qHTS assay for small molecule agonists of peroxisome proliferator-activated receptor gamma signaling (AID 588536; active means well fitted curve in the direction sought with a large enough effect in the signal ratio, with a control signal flat, not every such curve was filed as active; inconclusive means small, poorly fitted or top-dose-only effect, or effect the other way, or a change in a side signal; inactive means no such curve, though single readings can be large or run the other way; the % refers to the signal ratio;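 further: 0% = DMSO basal wells and 100% = rosiglitazone at 2 µM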); details: HEK293 PPARg-UAS-bla, beta-lactamase ratio, 16 h; activation: at 76.7 µM (top of the series), percent of rosiglitazone response, DMSO as zero
Method in brief: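 HEK293 UAS-bla reporter line, 1% charcoal/dextran FBS; titration, 16 h, 37 C; CCF4 loading 2 h RT; fluorescence 460/530 nm. Normalized to rosiglitazone 2 uM = 100%, DMSO = 0%.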

[14] = target: Peroxisome proliferator-activated receptor gamma (Homo sapiens) (UniProt P37231); experiment: qHTS assay for small molecule antagonists of peroxisome proliferator-activated receptor gamma signaling (AID 588537; active means well fitted inhibition curve with a large enough effect in the signal ratio, with a control signal flat, not every such curve was filed as active; inconclusive means small, poorly fitted or top-dose-only effect, or effect the other way, or a change in a side signal; the % refers to the signal ratio;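 further: reporter cells co-stimulated with 50 nM rosiglitazone agonist during compound treatment; % of control where 0% means no effect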); details: HEK293 PPARg-UAS-bla, beta-lactamase ratio, antagonist mode; activity, negative = inhibition: at 76.8 µM (top of the series)
Method in brief: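 We seeded GeneBLAzer HEK293 reporter cells at 3000 per well, allowed 6-6.5 h attachment at 37 C, then co-treated with test compound titrations and 50 nM rosiglitazone overnight (16 h). Inhibition was quantified from 460/530 nm emission ratios.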

[15] = qHTS assay for small molecule disruptors of the mitochondrial membrane potential - 1 hr assay (AID 651754; calls by dose curve; further: potency means the concentration at half of the fitted maximal effect; nearly all actives have a fitted effect of over 35% in size); details: ratio change, negative = depolarisation: at 92.2 µM (top of the series)
Method in brief: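 HepG2 cells, attached overnight, were exposed to compound for 1 hr at 37C, then stained 30 min with a potentiometric dye. Ratio of red aggregate (590nm) to green monomer (535nm) fluorescence reports membrane potential; collapse shifts signal toward green.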

[16] = qHTS assay for small molecule disruptors of the mitochondrial membrane potential - 5 hr assay (AID 651755; calls by dose curve; further: potency means the concentration at half of the fitted maximal effect; nearly all actives have a fitted effect of over 40% in size); details: JC-1-type ratio dye; ratio change, negative = disruption: at 92.2 µM (top of the series)
Method in brief: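 HepG2 cells, attached overnight at 37C, were exposed to compound or DMSO for 5 hr at 37C, 5% CO2. Mito-MPS dye was then added for 30 min, and fluorescence read at 490/535 nm (monomers) and 540/590 nm (aggregates).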

[17] = target: Tumor necrosis factor (Homo sapiens) (UniProt P01375); experiment: qHTS assay to identify small molecules that stimulate Tumor Necrosis Factor-alpha (TNF-alpha) secretion (AID 651757; active means well fitted curve in the direction sought with a large enough effect in the signal ratio; inconclusive means small, poorly fitted or top-dose-only effect, or a change in a side signal; inactive means no such curve, though single readings can be large or run the other way; the % refers to the signal ratio; further: 0% is about no effect); details: Human cells, HTRF 665/615 ratio; activation (TNF-alpha secretion): at 92.2 µM (top of the series)
Method in brief: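 THP-1 cells (3000/well) exposed to compounds 17 hrs at 37 C. Secreted TNF-alpha detected by HTRF with cryptate- and XL665-labeled anti-TNF-alpha antibodies after 3 hr at room temperature.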

[18] = Cell Viability - HepG2 (AID 433; calls by dose curve;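 further: potency means the concentration at half of the fitted maximal effect; cells exposed to compound for 40 hours; potency for ATP loss meaning cytotoxicity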); details: qHTS
Method in brief: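 HepG2 cells, 1500 per well, treated 40 hr at 37 °C in complete medium; viability from intracellular ATP by CellTiter-Glo luminescence. Normalized to DMSO and 100 uM tamoxifen; AC50 from Hill fit of qHTS concentration-response.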

[19] = Cell Viability - Mesenchymal (AID 546); details: mesenchymal cells viability, qHTS; activity change, negative = cytotoxicity: at 91.7 µM (top of the series);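 further: cells exposed to compound for 40 hours before reading; 0% = DMSO only and -100% = 100 µM tamoxifen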
Method in brief: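 Normal human renal glomerulus-derived kidney mesenchymal cells, 1000 per well in complete medium, were treated with compounds for 40 hr at 37 °C. Viability was read as intracellular ATP by CellTiter-Glo luminescence; AC50 values came from Hill-equation fits of qHTS concentration-response data.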

[20] = Cell Viability - LYMP2-001 (AID 921);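 further: 0% = DMSO only and full inhibition = tetraoctylammonium bromide control wells; nearly all actives have a fitted effect of over 70% in size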
Method in brief: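 Human lymphoblastoid LYMP2-001 cells, 2500 per well, in complete medium, treated 24 h at 37 C. Viability from cellular ATP by CellTiter-Glo luminescence; AC50 from Hill-equation fits of qHTS concentration-response.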

[21] = MultiTox-Fluor Cytotoxicity Assay - LYMP1-002 - Dead Cells (AID 960); details: LYMP1-002 lymphoblastoid cells, dead-cell protease fluorescence; cytotoxicity (dead cells): at 46.1 µM (top of the series);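 further: 0% = DMSO and 100% = tetraoctylammonium bromide; nearly all actives have a fitted effect of over 60% in size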
Method in brief: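 Human lymphoblastoid LYMP1-002 cells, 2500/well, treated 16 h at 37 C; dead-cell protease cleavage of bis-AAF-R110 read by fluorescence (485/520); normalized to DMSO and 15 uM tetraoctylammonium bromide; AC50 from Hill fit.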

[22] = Cell Viability - LYMP1-003 - Assay at 24 hr (AID 963);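 further: plate controls were DMSO only for no effect and tetraoctylammonium bromide positive control for full effect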
Method in brief: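 Human lymphoblastoid LYMP1-003 cells, 2500/well, treated 24 h at 37 C in complete medium. Viability read as intracellular ATP by CellTiter-Glo luminescence after 30 min at room temperature; AC50 from Hill-equation fits of qHTS concentration-response.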

[23] = Cell Viability - LYMP2-009 (AID 968);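 further: 0% = DMSO alone and the full-kill end = tetraoctylammonium bromide at 92 µM; nearly all actives have a fitted effect of over 55% in size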
[24] = Cell Viability - LYMP2-016 (AID 984); details: LYMP2-016 lymphoblastoid cell viability, qHTS; activity change, negative = cytotoxicity: at 92.2 µM (top of the series);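 further: cells exposed to compound for 24 hours at 37 °C; on the % scale 0 is the no-effect control and ±100 the full control effect; nearly all actives have a fitted effect of over 55% in size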
Method in brief: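 Human lymphoblastoid LYMP2-016 cells, 2500 per well, treated with compounds for 24 h at 37 C. Viability read as intracellular ATP by CellTiter-Glo luminescence after 30 min at room temperature; AC50 from Hill fits of concentration-response.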

[25] = target: Peroxisome proliferator-activated receptor delta (Homo sapiens) (UniProt Q03181); experiment: qHTS assay for small molecule antagonists of peroxisome proliferator-activated receptor delta signaling (AID 588535; active means well fitted inhibition curve with a large enough effect in the signal ratio, with a control signal flat, not every such curve was filed as active; inconclusive means small, poorly fitted or top-dose-only effect, or effect the other way, or a change in a side signal; inactive means no such curve, though single readings can be large or run the other way; the % refers to the signal ratio); details: HEK293T PPARd-UAS-bla, beta-lactamase FRET ratio, 18 h; activity change, negative = inhibition: at 76.7 µM (top of the series)
Method in brief: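 Reporter: UAS-bla under PPAR-delta response element, HEK293T host. Medium: 2% charcoal/dextran FBS. Dosing: titration, 18 hrs, 37 C. Detection: CCF4, 2 hrs RT, 405 ex/460 and 530 em.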

[26] = Cell Viability - LYMP2-005 (AID 967); further: potency means the concentration at half of the fitted maximal effect
Method in brief: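 Human lymphoblastoid LYMP2-005 cells, 2,500 per well in complete medium, rested 5 h at 37C then compound-treated 24 h at 37C. Intracellular ATP read by CellTiter-Glo luminescence after 30 min at room temperature; AC50 from Hill-equation fits of concentration-response data.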

[27] = target: Estrogen receptor (Homo sapiens) (UniProt P03372); experiment: qHTS assay for small molecule antagonists of estrogen receptor alpha signaling (AID 588513; active means well fitted curve in the direction sought with a large enough effect in the signal ratio, with a control signal flat, not every such curve was filed as active; inconclusive means small, poorly fitted or top-dose-only effect, or effect the other way, or a change in a side signal; inactive means no such curve, though single readings can be large or run the other way; the % refers to the signal ratio; further: on the % scale 0 is the no-effect control and ±100 the full control effect); details: ER-alpha-UAS-bla HEK293, beta-lactamase ratio, antagonist mode; activity, negative = inhibition: at 76.9 µM (top of the series) unless noted
Method in brief: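 ER-alpha-UAS-bla GripTite HEK 293 cells in 2% charcoal/dextran-treated FBS medium; compounds titrated (1:2, duplicate), then stimulated with 0.5 nM 17-beta-estradiol for 18 h at 37C. CCF4 beta-lactamase fluorescence; Hill-fit IC50 and efficacy.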

[28] = target: Vitamin D3 receptor (Homo sapiens) (UniProt P11473); experiment: qHTS assay for small molecule agonists of vitamin D receptor signaling (AID 588543; calls by dose curve; further: potency means the concentration at half of the fitted maximal effect); details: HEK293T VDR-UAS-bla, beta-lactamase ratio, 16 h; activation: at 76.8 µM (top of the series)
Method in brief: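 VDR-UAS-bla HEK293T cells, 2000/well, 2% charcoal-stripped FBS; compound titration 16 h at 37 C; CCF4 beta-lactamase ratio read. Normalized to 50 nM 1-alpha,25-dihydroxyvitamin D3 (100%) and DMSO; Hill fit gives EC50, efficacy.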
Tags describe the fitted curve by direction and shape or compound fluorescence and quenching.

Chain of UniProt P19793 (P19793 whole entry, looked up): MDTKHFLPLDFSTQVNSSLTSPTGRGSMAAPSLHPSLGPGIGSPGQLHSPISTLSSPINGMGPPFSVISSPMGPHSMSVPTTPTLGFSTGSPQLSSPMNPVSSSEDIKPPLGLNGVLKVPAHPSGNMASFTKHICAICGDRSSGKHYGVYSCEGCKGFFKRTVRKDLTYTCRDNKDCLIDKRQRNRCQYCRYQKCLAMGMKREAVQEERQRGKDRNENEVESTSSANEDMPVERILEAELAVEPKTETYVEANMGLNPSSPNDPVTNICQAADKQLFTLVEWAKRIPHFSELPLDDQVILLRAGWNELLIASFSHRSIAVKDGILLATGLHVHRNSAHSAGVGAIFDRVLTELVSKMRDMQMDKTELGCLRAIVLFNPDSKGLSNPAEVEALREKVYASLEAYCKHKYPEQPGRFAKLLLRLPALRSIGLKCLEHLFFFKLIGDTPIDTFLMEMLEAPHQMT
Chain of UniProt P51449 (P51449 whole entry, looked up): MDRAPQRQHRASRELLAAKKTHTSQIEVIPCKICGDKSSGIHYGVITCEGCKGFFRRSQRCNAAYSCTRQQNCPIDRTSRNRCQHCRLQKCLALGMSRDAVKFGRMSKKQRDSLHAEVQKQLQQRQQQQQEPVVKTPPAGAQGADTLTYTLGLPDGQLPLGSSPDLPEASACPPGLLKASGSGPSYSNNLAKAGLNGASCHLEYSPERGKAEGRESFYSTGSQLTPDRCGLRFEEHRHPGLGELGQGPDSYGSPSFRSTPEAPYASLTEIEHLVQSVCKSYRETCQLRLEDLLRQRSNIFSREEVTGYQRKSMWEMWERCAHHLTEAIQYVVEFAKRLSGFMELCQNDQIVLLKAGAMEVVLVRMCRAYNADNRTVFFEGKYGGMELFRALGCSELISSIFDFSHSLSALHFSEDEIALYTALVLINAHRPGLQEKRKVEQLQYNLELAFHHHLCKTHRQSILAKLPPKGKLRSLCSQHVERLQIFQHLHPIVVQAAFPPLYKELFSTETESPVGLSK
Chain of UniProt P03372 (P03372 whole entry, looked up): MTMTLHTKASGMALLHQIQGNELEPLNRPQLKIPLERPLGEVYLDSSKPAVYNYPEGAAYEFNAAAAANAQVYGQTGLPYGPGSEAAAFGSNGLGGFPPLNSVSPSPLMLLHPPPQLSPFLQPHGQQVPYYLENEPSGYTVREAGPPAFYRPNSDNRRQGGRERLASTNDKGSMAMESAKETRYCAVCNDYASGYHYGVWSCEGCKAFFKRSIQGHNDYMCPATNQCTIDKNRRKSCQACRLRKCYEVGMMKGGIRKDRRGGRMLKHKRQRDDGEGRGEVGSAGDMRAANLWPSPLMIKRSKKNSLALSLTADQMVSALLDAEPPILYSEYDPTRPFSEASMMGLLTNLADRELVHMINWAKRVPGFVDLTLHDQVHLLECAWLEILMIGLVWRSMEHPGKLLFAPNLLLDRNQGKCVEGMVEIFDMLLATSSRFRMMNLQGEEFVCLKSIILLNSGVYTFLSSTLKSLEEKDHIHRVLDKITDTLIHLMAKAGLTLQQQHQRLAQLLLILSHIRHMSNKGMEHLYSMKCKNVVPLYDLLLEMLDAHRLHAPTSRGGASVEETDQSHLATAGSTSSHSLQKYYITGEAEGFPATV
Chain of UniProt P10275 (P10275 whole entry, looked up): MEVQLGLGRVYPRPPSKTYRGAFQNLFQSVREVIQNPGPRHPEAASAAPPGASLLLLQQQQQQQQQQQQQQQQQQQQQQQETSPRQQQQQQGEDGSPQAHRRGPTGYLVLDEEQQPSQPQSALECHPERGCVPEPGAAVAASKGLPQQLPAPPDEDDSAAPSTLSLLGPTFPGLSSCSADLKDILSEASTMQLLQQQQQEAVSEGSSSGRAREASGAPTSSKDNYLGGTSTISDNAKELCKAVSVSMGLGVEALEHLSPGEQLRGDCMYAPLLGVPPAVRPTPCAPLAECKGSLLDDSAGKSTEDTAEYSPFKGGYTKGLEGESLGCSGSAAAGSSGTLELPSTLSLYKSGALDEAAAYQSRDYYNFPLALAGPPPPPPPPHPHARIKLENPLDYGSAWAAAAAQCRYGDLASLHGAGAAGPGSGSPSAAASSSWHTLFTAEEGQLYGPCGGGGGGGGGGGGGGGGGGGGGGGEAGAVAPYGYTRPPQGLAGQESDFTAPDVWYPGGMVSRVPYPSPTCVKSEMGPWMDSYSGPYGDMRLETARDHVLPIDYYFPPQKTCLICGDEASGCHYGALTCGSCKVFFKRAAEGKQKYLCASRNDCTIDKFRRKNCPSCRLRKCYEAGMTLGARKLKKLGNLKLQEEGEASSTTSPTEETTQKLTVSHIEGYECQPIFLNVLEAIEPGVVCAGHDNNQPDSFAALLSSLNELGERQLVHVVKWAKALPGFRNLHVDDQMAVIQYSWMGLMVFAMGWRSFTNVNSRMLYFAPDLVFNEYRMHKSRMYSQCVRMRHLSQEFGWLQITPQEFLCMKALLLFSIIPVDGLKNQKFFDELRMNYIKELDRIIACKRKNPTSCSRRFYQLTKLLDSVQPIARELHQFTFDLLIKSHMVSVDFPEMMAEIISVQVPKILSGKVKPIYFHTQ
Chain of UniProt P01375 (P01375 whole entry, looked up): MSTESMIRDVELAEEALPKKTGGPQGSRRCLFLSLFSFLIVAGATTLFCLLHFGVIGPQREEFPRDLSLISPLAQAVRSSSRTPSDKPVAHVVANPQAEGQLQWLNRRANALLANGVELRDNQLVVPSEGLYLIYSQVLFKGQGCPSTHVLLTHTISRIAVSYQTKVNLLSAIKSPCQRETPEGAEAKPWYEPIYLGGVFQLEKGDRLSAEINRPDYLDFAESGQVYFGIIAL
Chain of UniProt Q03181 (Q03181 whole entry, looked up): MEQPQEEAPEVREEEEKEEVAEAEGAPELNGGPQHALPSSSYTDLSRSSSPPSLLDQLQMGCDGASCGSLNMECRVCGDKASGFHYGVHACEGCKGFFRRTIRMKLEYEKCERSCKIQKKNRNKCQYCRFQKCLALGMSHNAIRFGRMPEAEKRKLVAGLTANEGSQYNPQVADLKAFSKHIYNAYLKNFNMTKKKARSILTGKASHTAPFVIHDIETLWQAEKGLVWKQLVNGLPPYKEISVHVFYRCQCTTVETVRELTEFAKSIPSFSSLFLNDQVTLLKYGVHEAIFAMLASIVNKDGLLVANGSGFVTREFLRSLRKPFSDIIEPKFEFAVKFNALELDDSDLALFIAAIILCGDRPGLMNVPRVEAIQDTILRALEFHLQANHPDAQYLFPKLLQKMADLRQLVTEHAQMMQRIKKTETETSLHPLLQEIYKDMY

CC1=C(/C=C/C(C)=C/C=C/C(C)=C\C=O)C(C)(C)CCC1
active: Potency [3] 37.6 µM | Potency [4] 0.422 µM | Potency [7] 26.6 µM
inconclusive: Potency [1] 1 µM [activator, full curve] | max response [2] -40.9% | Potency [5] 21.1 µM [inhibitor, partial curve, poor fit] | Potency [6] 33.5 µM [activator, partial curve, poor fit]

O=C(O)c1ccccc1C(c1ccc(O)cc1)c1ccc(O)cc1
inactive: Potency [8] > 92 µM | Potency [9] | Potency [10] | activation [12] 7.12% and 7.97% | Potency [13] | max response [2] 6.9% and 9.98% | Potency [3] | Potency [17]
inconclusive: Potency [11] 8.91 µM [activator, full curve] | activity, negative = inhibition [14] 17% | Potency [15] 50.1 µM [side channel, rising, partial curve] | Potency [16] 50.1 µM [side channel, rising, partial curve] | activation [4] -21.1%

COC(=O)CS
inconclusive: activity change, negative = inhibition [25] -12.3% | activation [13] 8.61% | activation [4] 2.22%
inactive: Potency [18] > 92 µM | Potency [19] | Potency [20] | Potency [21] | Potency [22] | Potency [23] | Potency [24] | Potency [5]

CCCCC(CC)COC(=O)COc1ccc(Cl)cc1Cl (centres undefined)
inconclusive: Potency [9] 39.8 µM [activator, partial curve] | Potency [26] 31.6 µM [cytotoxic, partial curve, poor fit] | activity, negative = inhibition [27] -0.754% | activity, negative = inhibition [14] 2.81% and 4.11% | Potency [28] 0.0014 µM [side channel, falling, full curve, poor fit] | activation [4] 6.38% | Potency [6] 19.3 µM [activator, full curve, poor fit]
inactive: Potency [8] > 92 µM
